Reference: publication PMC4336329 (PLoS ONE, 2015)
Among all 310,000 compounds or so, about 2,200 (0.71%) showed an effect of 50% or more. Effects have a minus sign here. The list shows a part of the results.

Each compound was assayed against human ether-à-go-go-related gene (hERG) potassium channel (human, UniProt Q12809) (assay: primary screen, population patch clamp on CHO cells stably expressing hERG).
Chain of human ether-à-go-go-related gene (hERG) potassium channel (Q12809 whole entry, looked up): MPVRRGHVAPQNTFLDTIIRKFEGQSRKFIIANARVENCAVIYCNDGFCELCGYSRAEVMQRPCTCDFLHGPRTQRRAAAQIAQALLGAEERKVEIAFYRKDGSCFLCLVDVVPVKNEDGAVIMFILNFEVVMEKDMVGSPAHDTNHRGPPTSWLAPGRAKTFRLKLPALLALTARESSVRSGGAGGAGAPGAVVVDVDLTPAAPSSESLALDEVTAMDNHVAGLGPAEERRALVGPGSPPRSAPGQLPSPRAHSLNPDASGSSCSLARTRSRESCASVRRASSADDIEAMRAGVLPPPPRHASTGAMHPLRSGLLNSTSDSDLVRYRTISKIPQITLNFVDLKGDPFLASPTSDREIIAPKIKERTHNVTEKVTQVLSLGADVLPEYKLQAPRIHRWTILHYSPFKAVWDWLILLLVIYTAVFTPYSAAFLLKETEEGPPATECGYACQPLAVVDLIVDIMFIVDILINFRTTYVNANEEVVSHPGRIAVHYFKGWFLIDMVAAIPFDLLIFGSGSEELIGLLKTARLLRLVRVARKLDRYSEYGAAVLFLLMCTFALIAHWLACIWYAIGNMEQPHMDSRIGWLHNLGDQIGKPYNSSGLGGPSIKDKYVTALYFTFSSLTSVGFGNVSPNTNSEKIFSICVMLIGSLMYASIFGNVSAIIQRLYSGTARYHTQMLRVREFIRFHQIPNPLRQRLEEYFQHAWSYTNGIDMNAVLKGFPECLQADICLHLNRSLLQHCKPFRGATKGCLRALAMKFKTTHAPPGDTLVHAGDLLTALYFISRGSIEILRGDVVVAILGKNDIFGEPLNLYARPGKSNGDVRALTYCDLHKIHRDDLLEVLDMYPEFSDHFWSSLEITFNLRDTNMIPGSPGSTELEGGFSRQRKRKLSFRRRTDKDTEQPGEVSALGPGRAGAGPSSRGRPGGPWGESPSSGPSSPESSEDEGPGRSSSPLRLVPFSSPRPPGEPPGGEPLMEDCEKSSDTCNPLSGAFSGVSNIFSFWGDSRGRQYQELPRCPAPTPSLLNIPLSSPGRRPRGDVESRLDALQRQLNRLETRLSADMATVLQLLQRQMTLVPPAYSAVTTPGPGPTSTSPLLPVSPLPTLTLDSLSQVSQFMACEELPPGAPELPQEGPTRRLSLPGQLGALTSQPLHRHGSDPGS

SMILES | hERG current change (%, negative = inhibition) at 1uM
COc1ccc(NC(=O)CSc2nc3ccccc3nc2N2CCCCC2)cc1 | 12.6%
C=CCn1cccc(C(=O)Nc2ccc(F)cc2)c1=O | 5.42%
Cc1ccc(S(=O)(=O)N(C)C)cc1NC(=O)COC(=O)CCC1CCCCC1 | 11.1%
CN(C)/C=C(\C=O)c1onc(-c2ccccc2Cl)c1C#N | 8.9%
Cn1c(=O)cc(SCC(=O)NCc2cccnc2)c2ccccc21 | 1.31%
Cc1c(CCC(=O)O)c(=O)oc2cc3occ(-c4ccccc4)c3cc12 | -4.07%
Cc1cccc(N2CCN(C(=O)CSCc3c(C)noc3C)CC2)c1C | 6.62%
CCN(CC(=O)Nc1c(F)cccc1F)C(=O)c1cccnc1Sc1ccccc1 | 12.9%
CC1CCCCC1NC(=O)c1cc(S(=O)(=O)N2CCCCC2)ccc1N1CCOCC1 (stereo not shown) | 11.1%
CCC1=NN(C(=O)COc2ccccc2)C(O)(c2ccc(Br)cc2)C1 (stereo not shown) | 5.87%
COc1ccc(-c2noc(CCC(=O)N3CCN(c4cccc(C(F)(F)F)c4)CC3)n2)cc1 | 14.3%
Cc1cc(C)c(C#N)c(SCc2ccccc2C)n1 | 14.1%
COC(=O)c1c(NC(=O)CSc2nnc(C)c(=O)[nH]2)sc(C)c1C | 17.9%
COC(=O)C1CSC(C(=O)OC)N1C(=O)CN1CCN(c2ccc(OC)cc2)CC1 (stereo not shown) | 10.7%
Br.COc1ccc(-c2nc(NC3=NCCCCC3)sc2C)cc1 | -1.4%
Nc1nc(CCl)nc(Nc2cccc3ccccc23)n1 | 11.6%
Cn1c(=O)[nH]c(=O)c2c1nc(N1CCNCC1)n2Cc1cccc2ccccc12 | 0.397%
Cc1ccc(C)c(NC(=O)C2COc3ccccc3O2)c1 (stereo not shown) | 20.8%
CC(NC(=O)N(Cc1ccccc1)Cc1ccc2c(c1)OCO2)(C(F)(F)F)C(F)(F)F | 8.68%
Cn1c(=O)c(=O)n(C)c2cc(S(=O)(=O)N3CCN(C4CCCCC4)CC3)ccc21 | 10.9%
CCCN(CCC)S(=O)(=O)c1ccc(NC(=O)C2CCCO2)cc1 (stereo not shown) | 0.598%
O=C(NCc1n[nH]c(=S)n1-c1cccc(C(F)(F)F)c1)c1ccco1 | 14%

SMILES | hERG current change (%, negative = inhibition) at 1uM
CC(C)(C)n1ncc2c(=O)n(CC(=O)Nc3ccc(Cl)cc3)cnc21 | 8.44%
CCn1cnc2sc(C(=O)Nc3ccc4c(c3)OCO4)c(C)c2c1=O | 12.5%
c1ccc2c(-c3nc(C4CCCCC4)no3)cc(-c3ccncc3)nc2c1 | 0.455%
CCN(CC)CC#CCC(O)(c1ccccc1)c1ccccc1 | 8.71%
Cc1nc2ccccn2c1C(=O)NC1CCCC1 | 13.2%
Cc1ccc2nc(C)cc(NCCO)c2c1.Cl | 7.24%
COc1ccc(OCC(=O)Nc2ccc3c(c2)C(=O)NC3=O)cc1 | 12.5%
Cc1ccc(S(=O)(=O)N2CCN(Cc3cccc(C)c3O)CC2)cc1 | 16%
Nc1c(C=C2C=CC(=O)C=C2)c(=O)nc2sc(CC(=O)N3CCCC3)nn12 | -1.3%
Cc1ccc(C(=O)NCC(=O)OCCCOC(=O)CNC(=O)c2ccc(C)cc2)cc1 | 7.55%
Cc1ccc(CNc2ccc3c(c2)ncn3C(C)C)cc1 | -15.8%
CSc1cccc(NC(=S)N2CCC(N(C)C3CCCCC3)CC2)c1 | -26.2%
O=C1CCCN1CC(O)CS(=O)(=O)c1ccc(Cl)cc1 (stereo not shown) | 19.1%
Cc1ccc(-c2nc(CN(C)Cc3ccc4nccnc4c3)c(C)o2)s1 | 2.63%
COc1ccc(C2C3=C(CC(C)(C)CC3=O)N(C)C3=C2C(=O)CC(C)(C)C3)cc1OC | 19.1%
NC(=O)C1CC(=O)N(c2ccc(OCc3ccc(Cl)cc3Cl)cc2)C1 (stereo not shown) | 4.16%
O=C(NCC1CCCO1)c1ccc(COCC(F)(F)C(F)F)cc1 (stereo not shown) | 2.38%
Cc1ccc(S(=O)(=O)Cn2nnnc2C(c2ccc(F)cc2)N2CCC(C(N)=O)CC2)cc1 (stereo not shown) | -3.18%
O=C1C(Cl)=C(NCC2CCCO2)C(=O)N1C1CCCCC1 (stereo not shown) | 10%
O=C(/C=C/c1ccccc1)c1cc(Br)ccc(=O)c1O | 0.55%
CCc1nnc(NC(=O)c2cc(S(=O)(=O)N(CC)CC)ccc2Cl)s1 | -1.93%
COc1cc(C(=O)OCC(=O)Nc2sccc2C(N)=O)cc(OC)c1OC | 21%

SMILES | hERG current change (%, negative = inhibition) at 1uM
CCn1c(=O)cc(SCC(=O)N2CCN(C(=O)c3ccco3)CC2)c2ccccc21 | 9.43%
NC(=O)C1CCCN(C(=O)c2ccc(S(=O)(=O)N3CCCCCC3)cc2)C1 (stereo not shown) | 6.46%
CCOC(=O)c1oc2ccccc2c1COC(=O)CNC(=O)c1ccc(C)cc1 | -3.59%
CC(C)OCCCN(C)C1CCN(S(=O)(=O)c2ccc(-c3ccc(=O)[nH]n3)s2)CC1 | 1.13%
CCOc1ccc(C(C)=O)cc1N1C(=O)C2C3C=CC(C3)C2C1=O (stereo not shown) | 6.73%
CCc1ccccc1NC(=O)CC(O)(C(=O)OC)C(F)(F)F (stereo not shown) | 14%
NC(=O)C1(NC(=O)[C@@H]2CC3(CC(c4cccc(NC(=O)[C@@H]5CCC(=O)N5)c4)=NO3)CN2C(=O)c2cnccn2)CC1 (stereo partly shown) | 13.1%
CCC1(c2ccccc2)NC(=O)N(CC(=O)Nc2cccnc2Cl)C1=O (stereo not shown) | 14.7%
NC(=O)c1cc2ccc(O)cc2oc1=NCc1ccccc1 | -7.76%
CC(C)(C)c1ccc(Oc2ccc(N)cc2)cc1 | 8.6%
COc1ccc(CCNC(=O)CCCCCn2c(SCC(N)=O)nc3cc4c(cc3c2=O)OCO4)cc1OC | 6.21%
CN1CSC2=C(C#N)C(c3cccc(OCc4ccccc4)c3)CC(=O)N2C1 (stereo not shown) | 4.22%
CCOc1ccc(NC(=O)CSc2ncn[nH]2)c([N+](=O)[O-])c1 | -2.08%
CCc1nnc(NS(=O)(=O)c2ccc(N/C=C/C(=O)c3ccc(OC)cc3)cc2)s1 | 11.3%
Cc1ccc(NC(=O)C2OCCc3ccccc32)cc1C (stereo not shown) | 8.56%
CC1CCCN(S(=O)(=O)c2ccc(NC(=O)Cc3ccc(S(=O)(=O)N4CCOCC4)s3)cc2)C1 (stereo not shown) | 6.62%
Cn1cc([N+](=O)[O-])c(C(=O)Nc2sc3c(c2C#N)CCC3)n1 | 11.2%
COc1ccccc1C(=O)Nc1ccc(C(=O)N2CCCCC2)cc1 | 7.81%
C=CCNC(=O)C(=O)Nc1ccc2c(c1)N(S(=O)(=O)c1cccs1)CCC2 | 10.8%
COc1ccc(C2c3c(nc(C)[nH]c3=O)Oc3c2c(=O)oc2ccccc32)cc1 (stereo not shown) | 12.7%
CCOc1ccc(NC(=O)C2CCC(CNc3c(N4CCC(C)CC4)c(=O)c3=O)CC2)cc1 (stereo not shown) | 11.8%
CCOc1cccc(C(=O)N(Cc2ccc(F)cc2)C2CCS(=O)(=O)C2)c1 (stereo not shown) | -10%

SMILES | hERG current change (%, negative = inhibition) at 1uM
CCOc1ccc(S(=O)(=O)N(CC)CC(=O)N2CCCC2)cc1 | 4.47%
CN1CCN(NC(=O)CN(C)S(=O)(=O)c2cc(Cl)ccc2Cl)CC1 | 6.96%
CC1CCCCC1NC(=O)C(C)N1C(=O)c2ccccc2C1=O (stereo not shown) | 5.16%
Cc1noc(C)c1S(=O)(=O)N(CC(=O)NCc1ccc(F)cc1)c1ccc(C(C)C)cc1 | 15.5%
Cc1ccc(N(CC(=O)Nc2cc(C)cc(C)c2)S(=O)(=O)c2c(C)noc2C)cc1 | 11.6%
CC(=O)Nc1ccc(N2CCN(Cc3ccccc3F)CC2)cc1 | -3.49%
COc1cccc(C(=O)NCCS(=O)(=O)N2CCCCCC2)c1 | 10.1%
Cc1c(NC(=S)NC(=O)c2cccc(Br)c2)c(=O)n(-c2ccccc2)n1C | 10.4%
CCOc1cccc2sc(NC(=O)c3ccc(Br)s3)nc12 | 11.3%
CCc1noc(C)c1C(=O)OC(C)C(=O)NCc1ccc(OC)cc1 (stereo not shown) | -3.58%
CCN(CC)c1nc2ccccc2nc1C(C#N)C(=O)NCCc1ccccc1 (stereo not shown) | -0.217%
CN(C)C(C)(C)C#CC(O)(c1ccccc1)c1ccccc1 | 11.5%
CS(=O)(=O)c1ccccc1C(=O)Nc1cccc2ncccc12 | 15%
O=C1c2ccccc2-c2c1cccc2C(=O)N1CCN(C(=O)c2ccco2)CC1 | -21.3%
COc1cc(OC)cc(-c2nc3ccccc3c(=O)n2OC(=O)c2ccc(Br)cc2)c1 | 6.96%
COc1ccccc1N1CCN(C(=O)CSc2nnc3c4ccccc4nc(Cc4ccccc4)n23)CC1 | -1.26%
Cl.NC(=O)c1c(NC(=O)C2COc3ccccc3O2)sc2c1CCN(Cc1ccccc1)C2 (stereo not shown) | 15%
COc1ccc(C)cc1NC(=O)c1ccc2c(O)c(S(=O)(=O)c3ccccc3)c(=O)[nH]c2c1 | 12.1%
Cc1c(C(c2cccc(O)c2)c2c(C)n(C)n(-c3ccccc3)c2=O)c(=O)n(-c2ccccc2)n1C | 13.9%
